Our source for the max response values is PubChem BioAssay (NCATS).

Assay [1] can be described thus: qHTS assay for small molecule antagonists of peroxisome proliferator-activated receptor delta signaling (AID 588535).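 Also: cells co-treated with a PPAR-delta agonist as stimulator during compound exposure.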 To be noted: HEK293T PPARd-UAS-bla, beta-lactamase FRET ratio, 18 h; 460 nm channel. In short, it runs like this: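 Compounds tested in titration on PPAR-delta-UAS-bla HEK293T cells grown in charcoal/dextran-stripped serum (2%); beta-lactamase activity read via CCF4 emission at 460 and 530 nm.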

The test system of the next assay is HaCat. The assay can be described thus: Cytotoxic Profiling of Annotated Libraries Using Quantitative High-Throughput Screening (AID 1296008). Also: % is scaled to controls: 0 for no effect and ±100 for the full control effect; nearly all actives have a fitted effect of over 60% in size. The note with it: Five cell lines viability, CellTiter-Glo ATP luminescence, 48-72 h, stronger effect = lower value. In short, it runs like this:
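Compounds were pin-transferred onto cells and incubated 48 or 72 hr at 37 degree Celsius, 95% humidity. CellTiter-Glo was added, plates sat 10 min at room temperature, then ATP-coupled luminescence was imaged as the viability read-out.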
Background: ATP-based viability assays read luminescence as a measure of living cells.

Each structure is given as a SMILES string. Inconclusive results are not listed. Calls follow the shape of the dose curve; as a rule, active = well fitted inhibition curve with a large enough effect; inconclusive = small, poorly fitted or top-dose-only effect; inactive = flat fitted curve, though single readings scatter. Certain results were filed several times, with different values. Only these are listed. There may be further records. The records of an entry are repeats in other runs, samples, wells, individuals or studies.

In the case of `CC1(C)C(C=C(Cl)Cl)C1C(=O)OCc1cccc(Oc2ccccc2)c1` (configuration not stated), the max response in assay [1] was -4.95, 25.4, 37.3, 25% [separate samples].
For the molecule `Cc1c(-c2ccnn2C)cc(C(=O)NCc2ccc(S(C)(=O)=O)cn2)c(=O)n1-c1cccc(C(F)(F)F)c1`, the max response entry with HaCat was “inactive: -24.5, -1.68, -4.8, 3.37% [separate samples]”.
